From publication PMC12136788 come the findings set out here.

Sequences and labels used below:
T1: UNK ZnF1-3 (human, UniProt Q9C0B0 31-174)
T1 sequence: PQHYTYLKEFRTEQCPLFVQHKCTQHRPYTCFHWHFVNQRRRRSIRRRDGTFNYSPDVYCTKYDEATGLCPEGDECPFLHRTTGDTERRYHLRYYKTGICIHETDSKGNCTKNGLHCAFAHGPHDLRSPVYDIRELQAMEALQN

B1: chr7:116084223:116084224:+_ENSMUSG00000031029_ENSMUST00000033342|mus_mus|motif|central (ssRNA)
RNA: GGGAGUUCUACAGUCCGACGAUCUGAGGCCCCUCCCACUUGUUGUAAGUCACUUGAGAGUCCAAUCACCCGGUUGGGGCGGAAACACGUCUUCAUGAUGAGGUCAACUCCAAUGCGUUCAGUGUCAUAAUACGCGUACUUCACCAACAGAGGAUUGAGCAUCA
B2: chr4:190862081:190862082:+_ENSG00000109536_ENST00000226798|hu_hu|FALSE|FALSE (ssRNA)
RNA: GGGAGUUCUACAGUCCGACGAUCGGCUGAGGCCGGUUCUGGACGAGUAUGUGAGUCGGGGCAGCACAGGGGCGCGGAGAAACAGAAGCGGACGCGAAAUAAACACUCCCUGACAGCCUACGUCUCUGUAGAACCCGCCUCCGUCAACAGAGGAUUGAGCAUCA
B3: chr9:111179681:111179682:+_ENSMUSG00000046785_ENSMUST00000060711|mus_hu|FALSE|FALSE (ssRNA)
RNA: GGGAGUUCUACAGUCCGACGAUCAACUUAAUAUUACAUAGUGGAUUUGGUGUGUAUAUUUGGUUUUGAAUCCUGAGUUUACUACUUACUGUGUUUACCAGGGAAAACCGCAAUUUGUUAUCCUUCUCUCCUUUCAUACAACAGCAACAGAGGAUUGAGCAUCA
B4: chr6:64423786:64423787:+_ENSG00000118482_ENST00000393387|hu_hu|FALSE|FALSE (ssRNA)
RNA: GGGAGUUCUACAGUCCGACGAUCAACAAAUCUUUGAAUAUACAGCAAUGUAAAACUUUUAAAAAUAUUAAAUUCCUAUAACUAGGGACCGUUGGUAUGAAGAAGGGAUGAUGAGCACUGGUACAGAGCACUCUGUACCAACACCAACAGAGGAUUGAGCAUCA
B5: chr6:31635678:31635679:+_ENSG00000204435_ENST00000375882|hu_mus|FALSE|FALSE (ssRNA)
RNA: GGGAGUUCUACAGUCCGACGAUCUAAGAUCAUGUCCAGAGCUUGUCGAUAGUGAGGCACCUGCUCAUUGAGUCCAGUAAGAUUAAAUUUGUCCUGGAUGUAGUCUUCAUCCACCUCACAGAAGAAUUCAUUACCACGGAGCCCCAACAGAGGAUUGAGCAUCA
B6: chr7:138235809:138235810:+_ENSG00000122779_ENST00000415680|hu_hu|motif|central (ssRNA)
RNA: GGGAGUUCUACAGUCCGACGAUCGGAUGCAUCACACCUUGCACGAAGGAGGUGCCGUAACCGGUAUGUAAUCAGUCGUUUGCGGUAAAGUAAUGCUGUACUGCUGCCACUGGAAACUGCCCAUUUAGAAAAAUGCAUGACAUGCAACAGAGGAUUGAGCAUCA
B7: chr8:101931661:101931662:-_ENSG00000164924_ENST00000353245|hu_hu|FALSE|FALSE (ssRNA)
RNA: GGGAGUUCUACAGUCCGACGAUCUAAGUUAGAAAAUGCCAUAUGCCAAAAUUUUAAAUGGAACACACUACAUUUUUUUCUAAUCAAUCCCCCCCUCUCCCAGAAAAAAUAGGAACUCAUUUUUUUCAGGGUGGGGAGGAAGAGCAACAGAGGAUUGAGCAUCA
B8: chr7:141445308:141445309:+_ENSG00000106028_ENST00000265304|hu_hu|hu_hu_hu_mus_False|38_88 (ssRNA)
RNA: GGGAGUUCUACAGUCCGACGAUCUAUGAUUGUUGUUGCUUGCCGCCUCACAUUAUUUUUAUCCAUGUACUCGCCAUAGUCCACUUUCCCUUCCACAUAAAUUCGAGCCCCCUUUUUCACAUACUGAUAUGCCACAUCUCUGAGCAACAGAGGAUUGAGCAUCA
B9: chr16:94690367:94690368:+_ENSMUSG00000040785_ENSMUST00000117648|mus_hu|motif|central (ssRNA)
RNA: GGGAGUUCUACAGUCCGACGAUCCUAUAUUUACCACUGUCUAAAAGUCACAAAACAAUAUCUAAUUUUUUCAUGGUUUCGGAUGCAGUUACAGUUUUGUUCUUAGGUCACAGUACAAGACUGCAUGCAUACUUUACACAAAUACAACAGAGGAUUGAGCAUCA
B10: chr1:45244325:45244326:+_ENSG00000142937_ENST00000396651|hu_hu|FALSE|FALSE (ssRNA)
RNA: GGGAGUUCUACAGUCCGACGAUCUUACAUGGGUGAAGACAAAACAAGGAUUUAUUUGCCUUUGCGGGCCUUGAUUUUCCUAAGAUAGAACUCCAACUCUUUGCCCUCUAGCACAUAGCCAUCUGCUCGGCCACACUGUCCCGGCAACAGAGGAUUGAGCAUCA
B11: chr9:95050471:95050472:-_ENSG00000196305_ENST00000443024|hu_hu|motif|central (ssRNA)
RNA: GGGAGUUCUACAGUCCGACGAUCAUCCCAUCCAAAUCUUCUGUCAACAUGAAACCCACUCUGGUGAGCAUAUCUUGUAACGGUAUCUUUAAUUGUACCCGCAAGUAUAUGUCCAUAGUGAGGCAGUCCAGUUGCAAAAGGAGGCAACAGAGGAUUGAGCAUCA
B12: 89536129_89544291_861_3pUTR_ENSG00000138138_ENST00000328142|human|control|control (ssRNA)
RNA: GGGAGUUCUACAGUCCGACGAUCUUCAUCAUGGCUGUAGCUUCAUGGUCAGAACUUGAACGGUUUCGUAGAAAGGAGUCUAUUUCAUCUAUAAAGAUGAUGGAUGGUUGUAGCUUUAUGGCAAGGGAGAAGACAGCAGCAGCCCAACAGAGGAUUGAGCAUCA
B13: chr2:135777783:135777784:+_ENSMUSG00000039943_ENSMUST00000110109|mus_hu|FALSE|FALSE (ssRNA)
RNA: GGGAGUUCUACAGUCCGACGAUCGAUGGCUUGAAUUACAUCCUUAAAAAGGAUAUCUGUACACAUUGCUUUUCCAUGAGUUAUUAUUGGUUCUUGGUCUUCACCUUUUCCAUCCCAGCAGUCAAGUUCAACACAUCUGCAACCCAACAGAGGAUUGAGCAUCA
B14: chr3:105770834:105770835:+_ENSMUSG00000000561_ENSMUST00000010278|mus_mus|motif|central (ssRNA)
RNA: GGGAGUUCUACAGUCCGACGAUCACAGGAAAACACUCAUCUCUCACACACAACACCAAGGAAGGAAAGGGUGAACAAGAGCGGCACUGCAGGGCCAAAUUUAUUCACCCAGAAAAUGGAUUUGACUCAGUAUAACAGGGACUUCAACAGAGGAUUGAGCAUCA
B15: chr2:183846084:183846085:-_ENSG00000061676_ENST00000360982|hu_mus|motif|central (ssRNA)
RNA: GGGAGUUCUACAGUCCGACGAUCGAGGUAUUGCACGUAGUACCUCUGCAUGACAGGCCCAUACUUCCUGACAUGUGCUCGGAGCUCUUCCAUGUAAAAUAUUAGCUCAGCAAUGUGCUUAUCUAUAAAGUCAUCUGCACUCUUCAACAGAGGAUUGAGCAUCA
B16: chr8:104447970:104447971:+_ENSG00000164934_ENST00000297579|hu_hu|hu_hu_hu_mus_False|58_58 (ssRNA)
RNA: GGGAGUUCUACAGUCCGACGAUCAUACACUUCCCUGCUUCGGCUCUUGUCCACAGGAAAGAUUCUAAUAGACUUAUCGAAACUAGCAGACACAAAUUCCUUCCCAGUGGGAGAGUAGUCCACAUCAAGUACUGCAGACACGUGCAACAGAGGAUUGAGCAUCA
B17: chr1:165623523:165623524:+_ENSG00000143198_ENST00000367886|perfect_dup|FALSE|FALSE (ssRNA)
RNA: GGGAGUUCUACAGUCCGACGAUCAUAGCCAUAAGCAUAAAGAACUCGUCCAACAAUCCAGGCCAAGCCCAGGCCAGAAGCUAUACGCGGGUGGUAAACACCUCCAACAGCUAGAAAAAAUAAGAAGGGAGGAUACACUUCCAACAACAGAGGAUUGAGCAUCA
B18: 110719532_110719652_107_3pUTR_ENSG00000174437_ENST00000539276|human|control|control (ssRNA)
RNA: GGGAGUUCUACAGUCCGACGAUCCGUUGACGCCGAAGUGGCCCAGCACCUCCUCCACCGUCUUGGUGUGCGCGUUCUCCAUGGCUUCGGGGGCCCGGCCGGCCUCGCCUCCCGUCCCCGCGGCCUCCUCGCCUCCGCCUCGCACAACAGAGGAUUGAGCAUCA
B19: 53458154_53458274_1141_CDS_ENSG00000177613_ENST00000331173|human|control|control (ssRNA)
RNA: GGGAGUUCUACAGUCCGACGAUCUAAUGGCCCUCCCCUCAUCUCAUGUGAGGAAGGGCCACGAGUGUCAUGACCAGAGGCAUGAUGCAUGGGGGGACCCUGAUGGGGUGGACCCAGAUAACCUCUGGGCUCCACUUCUCCAGUCAACAGAGGAUUGAGCAUCA
B20: chr8:95500983:95500984:-_ENSG00000164944_ENST00000437199|hu_hu|hu_hu_hu_mus_True|8_98 (ssRNA)
RNA: GGGAGUUCUACAGUCCGACGAUCAGAACACAUCUAUUCGUGUAAAGACCGUACAUGACGGCCUCUACCACUGCCUCCACUAACAAACUUUCCUCUCGAGCCUCCACUGCCGCUAUUUGUACUAGCCCCAGGAAGGUCCAGGCCCAACAGAGGAUUGAGCAUCA
B21: 153191644_153191764_77_5pUTR_ENSMUSG00000023150_ENSMUST00000023918|mouse|control|control (ssRNA)
RNA: GGGAGUUCUACAGUCCGACGAUCGGGUACUCGCGGGAACUCGCUCGCCGCCACGACGCGCCCAGCACCUCCGAGCGACUGACCGACCUCCACGCGCGUCCCGAACACACUGCCACCGCCGCCGCCGCCGCGCGCGCUCGCGCCCAACAGAGGAUUGAGCAUCA
B22: 102315511_102315631_8827_3pUTR_ENSG00000166135_ENST00000299163|human|control|control (ssRNA)
RNA: GGGAGUUCUACAGUCCGACGAUCUAUAUUCAAGAGGUAAUAAAAACCUGGCCCAAGCUUAGCUUAGAUGAUGGGUUAAGGAGCACAGCUUUCCUGAUAGUUCUGACCUCAAUGACCAAGUGAAUAGGUUUUAAGUAAACGGAACAACAGAGGAUUGAGCAUCA

The other results are listed elsewhere or left out.

The target of the test is T1, UNK ZnF1-3. The experiment in a line: nsRBNS (natural sequence RNA bind-n-seq); RBNS binding buffer (assumed for nsRBNS): 25 mM Tris pH 7.5, 150 mM KCl, 3 mM MgCl2, 0.01% Triton X-100, 500 ug/ml BSA, 20 U/ml SUPERase-In, 4 C; UNK is unkempt and MSI1 is Musashi-1; names of the RNAs are library labels; protein concentration not given here; high values mean tight binding.
For B1, the binding signal was found to be 0.972 enrichment R.

On to B2, for which the binding signal turned out to be 0.622 enrichment R.

In turn, B3 gave a binding signal of 0.702 enrichment R.

For B4, the binding signal worked out at 1.32 enrichment R.

B5: the binding signal came to 1.4 enrichment R.

B6: the binding signal was 1.13 enrichment R.

In the case of B7, the binding signal worked out at 0.576 enrichment R.

The molecule B8 gave a binding signal of 0.735 enrichment R.

As for B9, the binding signal is 0.512 enrichment R.

In turn, B10 registered a binding signal of 1.01 enrichment R.

B11 registered a binding signal of 0.484 enrichment R.

B12 had a binding signal of 1.47 enrichment R.

B13 yielded a binding signal of 0.864 enrichment R.

On to B14, for which the binding signal stood at 1.49 enrichment R.

As to B15, the binding signal was determined as 0.719 enrichment R.

B16 registered a binding signal of 0.897 enrichment R.

B17 yielded a binding signal of 1.6 enrichment R.

In turn, B18 returned a binding signal of 0.973 enrichment R.

For B19, the binding signal stood at 0.71 enrichment R.

As for B20, the binding signal amounted to 0.984 enrichment R.

B21: the binding signal turned out to be 1.22 enrichment R.

In turn, B22 displayed a binding signal of 2.01 enrichment R.
